The values that follow come from publication PMC4336329 (PLoS ONE, 2015).

In all, about 310,000 compounds went through this assay and about 14,000 (4.5%) showed an effect of 50% or more. Effects have a minus sign here. The list shows a part of the results.
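Note: peak tail current of the secondary pulse compared with the same well before compound.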

Sequence of human ether-à-go-go-related gene (hERG) potassium channel (Q12809 whole entry, looked up): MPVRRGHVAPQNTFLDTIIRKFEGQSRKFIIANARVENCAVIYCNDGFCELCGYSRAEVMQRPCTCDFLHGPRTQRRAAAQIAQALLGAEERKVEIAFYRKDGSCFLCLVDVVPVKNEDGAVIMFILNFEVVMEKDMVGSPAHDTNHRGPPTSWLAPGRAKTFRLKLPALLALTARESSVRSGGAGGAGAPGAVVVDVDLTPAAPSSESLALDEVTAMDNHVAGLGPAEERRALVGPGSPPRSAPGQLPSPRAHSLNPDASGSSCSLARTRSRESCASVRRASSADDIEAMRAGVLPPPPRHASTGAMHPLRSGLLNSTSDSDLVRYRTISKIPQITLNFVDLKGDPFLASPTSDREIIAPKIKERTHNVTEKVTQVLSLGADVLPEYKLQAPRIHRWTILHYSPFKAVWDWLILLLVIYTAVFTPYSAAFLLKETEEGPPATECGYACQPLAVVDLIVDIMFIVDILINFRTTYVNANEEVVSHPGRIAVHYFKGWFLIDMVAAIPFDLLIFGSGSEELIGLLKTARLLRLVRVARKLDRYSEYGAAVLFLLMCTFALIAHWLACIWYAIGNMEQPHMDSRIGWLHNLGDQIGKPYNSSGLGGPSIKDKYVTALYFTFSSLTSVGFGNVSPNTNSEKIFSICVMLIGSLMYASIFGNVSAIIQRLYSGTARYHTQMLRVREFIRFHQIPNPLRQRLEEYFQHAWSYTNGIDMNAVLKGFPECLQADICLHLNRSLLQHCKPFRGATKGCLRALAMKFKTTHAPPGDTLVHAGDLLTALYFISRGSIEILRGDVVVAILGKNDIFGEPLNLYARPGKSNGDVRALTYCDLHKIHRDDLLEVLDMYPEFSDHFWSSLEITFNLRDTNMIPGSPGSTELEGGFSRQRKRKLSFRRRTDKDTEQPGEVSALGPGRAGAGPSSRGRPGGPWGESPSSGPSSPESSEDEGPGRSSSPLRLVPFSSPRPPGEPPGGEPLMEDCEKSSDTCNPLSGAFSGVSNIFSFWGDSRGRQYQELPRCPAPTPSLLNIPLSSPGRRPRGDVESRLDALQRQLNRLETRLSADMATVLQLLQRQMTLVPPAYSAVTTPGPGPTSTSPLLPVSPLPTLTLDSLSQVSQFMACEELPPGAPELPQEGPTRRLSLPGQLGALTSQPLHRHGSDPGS

This test concerns the target human ether-à-go-go-related gene (hERG) potassium channel (human, UniProt Q12809). The experiment in a line: primary screen, population patch clamp on CHO cells stably expressing hERG.
As to `CC(=O)NC(CCS(C)(=O)=O)C(=O)Nc1ccccc1Cl` (stereo not shown), the “hERG current change (%, negative = inhibition) at 10uM” value amounted to 7.81%.

Consider `C#CCOCCOCCOCCNc1nc(N2CCN(C(=O)[C@H](CCC(=O)O)n3cc(C(N)[C@H](C)CC)nn3)CC2)nc(N2CCN(C(=O)[C@H](Cc3ccc(O)cc3)n3cc(C(N)[C@H](C)CC)nn3)CC2)n1.Cl` (stereo partly shown), for which the “hERG current change (%, negative = inhibition) at 10uM” value is listed as 7.62%.

Turning to `Cc1cc([N+](=O)[O-])ccc1NC(=S)NC(=O)C(c1ccccc1)c1ccccc1`, the “hERG current change (%, negative = inhibition) at 10uM” value is reported as -1.1%.

As for `COc1ccc(NC(=O)c2sc(N)nc2-c2ccccc2)cc1`, the “hERG current change (%, negative = inhibition) at 10uM” value is -1.72%.

As for `CCOc1ccccc1-c1nc2c([nH]1)c(=O)n(C)c(=O)n2C`, the “hERG current change (%, negative = inhibition) at 10uM” value is -10.5%.

With `CCOc1cccc(C2/C(=C(/O)c3ccc4c(c3)CC(C)O4)C(=O)C(=O)N2Cc2ccncc2)c1` (stereo not shown), the “hERG current change (%, negative = inhibition) at 10uM” value worked out at 9.67%.

Regarding `O=C(Cc1ccc(S(=O)(=O)N2CCCCC2)s1)Nc1cccc2ccccc12`, the “hERG current change (%, negative = inhibition) at 10uM” value is listed as 10.8%.

For the compound `CCCOc1ccc(-c2c(C(=O)N/N=C/c3ccccc3)nnn2-c2nonc2N)cc1`, the “hERG current change (%, negative = inhibition) at 10uM” value was found to be 4.98%.

Turning to `C/C(=N/NC(=S)Nc1ccccc1)c1ccc2c(c1)OCO2`, the “hERG current change (%, negative = inhibition) at 10uM” value was 15.4%.

Consider `O=C(O)Cc1csc(-c2ccccc2)n1`, for which the “hERG current change (%, negative = inhibition) at 10uM” value is on record as 14.4%.

Turning to `Oc1c(C=Nc2cccc3cccnc23)sc2ccccc12`, the “hERG current change (%, negative = inhibition) at 10uM” value turned out to be 11.8%.

Take `COc1cccc(/C=C2\SC(=S)N(N3CCOCC3)C2=O)c1OC`: the “hERG current change (%, negative = inhibition) at 10uM” value is listed as -0.973%.

In the case of `Cc1ccccc1N(CC(=O)NC1CCCCC1)C(=O)CCC(=O)Nc1nccs1`, the “hERG current change (%, negative = inhibition) at 10uM” value is reported as -8.14%.

`O=[N+]([O-])c1ccc(O)c(C=Nc2cccc3ccccc23)c1`: the “hERG current change (%, negative = inhibition) at 10uM” value was 2.26%.

Turning to `COc1cccc(-c2cc3nc4c(c(N5CCC6(CC5)OCCO6)n3n2)CCC4)c1`, the “hERG current change (%, negative = inhibition) at 10uM” value is on record as 4.96%.

With `CS(=O)(=O)N(CC(=O)N1CCN(c2cccc(Cl)c2)CC1)c1cccc(F)c1`, the “hERG current change (%, negative = inhibition) at 10uM” value was -33.8%.

As to `COC(=O)c1ccc(NC(=O)CN2CCN(c3ccccc3)CC2)cc1`, the “hERG current change (%, negative = inhibition) at 10uM” value is given as -23.5%.

For the compound `Cc1cc(C)n(CC(=O)n2c(C)c(C)c3ccccc32)n1`, the “hERG current change (%, negative = inhibition) at 10uM” value is listed as 3.04%.

On to `Cc1cccc(NS(=O)(=O)c2cccc3nsnc23)c1`, for which the “hERG current change (%, negative = inhibition) at 10uM” value was -5.25%.

For `CC(C)[C@H](NC(=O)c1c(F)cccc1F)C(=O)Nc1cccc(Br)c1`, the “hERG current change (%, negative = inhibition) at 10uM” value is reported as 7.41%.

Turning to `COc1ccc(-c2noc(CSc3nc(N)c(-c4ccccc4)c(=O)[nH]3)n2)cc1OC`, the “hERG current change (%, negative = inhibition) at 10uM” value was determined as 9.94%.

Regarding `C#CC[N+](C)(C)CCCCCCCC.[Br-]`, the “hERG current change (%, negative = inhibition) at 10uM” value is -15.9%.

Regarding `Cc1nn(CC(=O)NCCc2cccs2)c(=O)c2cc3ccccc3n12`, the “hERG current change (%, negative = inhibition) at 10uM” value came out at 18.9%.

With `COc1ccc(Oc2nccc(OC)c2C#N)cc1`, the “hERG current change (%, negative = inhibition) at 10uM” value was -0.188%.

For the compound `COc1ccc(C(=O)OCC(N)=O)cc1[N+](=O)[O-]`, the “hERG current change (%, negative = inhibition) at 10uM” value was -25.1%.

As for `O=c1cc(CO)occ1OCc1cccc(C(F)(F)F)c1`, the “hERG current change (%, negative = inhibition) at 10uM” value is reported as -4.65%.

With `Cc1ccnc(NC(=O)c2ccc(Cl)c(S(=O)(=O)N3CCCC3)c2)c1`, the “hERG current change (%, negative = inhibition) at 10uM” value is on record as -15.7%.

With `O=C(OCC(=O)c1cccs1)c1ccccc1`, the “hERG current change (%, negative = inhibition) at 10uM” value is recorded as -5.06%.

Consider `CCC(Oc1ccccc1)C(=O)N1CCN(C(=O)C(CC)Oc2ccccc2)CC1` (stereo not shown), for which the “hERG current change (%, negative = inhibition) at 10uM” value is listed as -33.5%.

As to `O=C(CCNC(=O)C1CCN(S(=O)(=O)c2ccccc2)CC1)NCc1ccc(Cl)cc1Cl`, the “hERG current change (%, negative = inhibition) at 10uM” value is given as -45.1%.

In the case of `CCCc1ccc2oc(C(=O)NCCN3CCCC(C(N)=O)C3)c(C)c2c1` (stereo not shown), the “hERG current change (%, negative = inhibition) at 10uM” value is given as -48.8%.

Regarding `CCCCc1nc2ccccc2c(=O)n1NC(=O)c1c(O)c2ccccc2n(C)c1=O`, the “hERG current change (%, negative = inhibition) at 10uM” value was determined as 7.59%.

Consider `CNC(=O)c1csc(-c2ccccc2)n1`, for which the “hERG current change (%, negative = inhibition) at 10uM” value amounted to 0.516%.

Turning to `Cc1ccc(C(=O)NCc2n[nH]c(=S)n2-c2ccccc2)cc1[N+](=O)[O-]`, the “hERG current change (%, negative = inhibition) at 10uM” value turned out to be 7.76%.

With `COc1cccc(-c2cc(C(=O)Nn3cnnc3)c3ccccc3n2)c1`, the “hERG current change (%, negative = inhibition) at 10uM” value was 3.11%.

For the compound `Cc1ccc(-n2c(SCC(=O)N3CCOCC3)nnc2-c2ccncc2)cc1C`, the “hERG current change (%, negative = inhibition) at 10uM” value is -10.6%.

`CC(/C=N/Nc1nncc(=O)[nH]1)=C\c1ccccc1`: the “hERG current change (%, negative = inhibition) at 10uM” value is 3.08%.

In the case of `Cc1ccc(S(=O)(=O)N(C)c2c(C)ccc(S(=O)(=O)Nc3ccncc3)c2C)cc1`, the “hERG current change (%, negative = inhibition) at 10uM” value is 7.82%.

In the case of `COc1ccc(N2CCN(S(=O)(=O)CCNC(=O)COc3ccccc3C)CC2)cc1`, the “hERG current change (%, negative = inhibition) at 10uM” value was determined as 1.17%.

Take `CCOc1ccc(/C=C2\SC(=S)N(NC(=O)c3ccncc3)C2=O)cc1OC`: the “hERG current change (%, negative = inhibition) at 10uM” value turned out to be 16.9%.

For `Cn1c(N)c(C(=O)COC(=O)c2ccc([N+](=O)[O-])o2)c(=O)n(C)c1=O`, the “hERG current change (%, negative = inhibition) at 10uM” value is -34.6%.

In the case of `CCCCCOC(=O)CSc1nc2c(c(=O)[nH]c(=O)n2C)n1Cc1ccc(Cl)cc1`, the “hERG current change (%, negative = inhibition) at 10uM” value is -11.8%.

On to `CC1CN=C(N(Cc2ccccc2)C(=O)Nc2ccccc2)S1` (stereo not shown), for which the “hERG current change (%, negative = inhibition) at 10uM” value was 17.4%.
